# Laboratory results published in the supplement of paper PMC11876631.
# ± gives the standard deviation of the averaged measurements. Laboratory Escherichia coli strains with one amino-acid change in an essential protein, pooled on minimal glucose agar with carbenicillin or gentamicin at twice the control MIC (plus kanamycin and chloramphenicol for the plasmids), 48 h. Fold change of barcode share against drug-free plates; higher = less susceptible. Active = above 20 in both replicates (the paper's putatively resistant). '<' = one read or none on drug, '>' = one read or none on a drug-free plate. Shares are relative, so most strains fall below 1 when a few take over. Listed are strains with at least 15 reads on both drug-free plates, and hits; most hits rest on fewer reference reads. Replicate rank correlation about 0.5. Edits are read from barcodes.
# B1: metE L239D (protein)
# chain: MTILNHTLGFPRVGLRRELKKAQESYWAGNSTREELLAVGRELRARHWDQQKQAGIDLLPVGDFAWYDHVLTTSLLLGNVPARHQNKDGSVDIDTLFRIGRGRAPTGEPAAAAEMTKWFNTNYHYMVPEFVKGQQFKLTWTQLLDEVDEALALGHKVKPVLLGPVTWLWLGKVKGEQFDRLSLLNDILPVYQQVLAELAKRGIEWVQIDEPALVLELPQAWLDAYKPAYDALQGQVKLDLTTYFEGVTPNLDTITALPVQGLHVDLVHGKDDVAELHKRLPSDWLLSAGLINGRNVWRADLTEKYAQIKDIVGKRDLWVASSCSLLHSPIDLSVETRLDAEVKSWFAFALQKCHELALLRDALNSGDTAALAEWSAPIQARRHSTRVHNPAVEKRLAAITAQDSQRANVYEVRAEAQRARFKLPAWPTTTIGSFPQTTEIRTLRLDFKKGNLDANNYRTGIAEHIKQAIVEQERLGLDVLVHGEAERNDMVEYFGEHLDGFVFTQNGWVQSYGSRCVKPPIVIGDISRPAPITVEWAKYAQSLTDKPVKGMLTGPVTILCWSFPREDVSRETIAKQIALALRDEVADLEAAGIGIIQIDEPALREGLPLRRSDWDAYLQWGVEAFRINAAVAKDDTQIHTHMCYCEFNDIMDSIAALDADVITIETSRSDMELLESFEEFDYPNEIGPGVYDIHSPNVPSVEWIEALLKKAAKRIPAERLWVNPDCGLKTRGWPETRAALANMVQAAQNLRRG
# B2: metE L239P (protein)
# chain: MTILNHTLGFPRVGLRRELKKAQESYWAGNSTREELLAVGRELRARHWDQQKQAGIDLLPVGDFAWYDHVLTTSLLLGNVPARHQNKDGSVDIDTLFRIGRGRAPTGEPAAAAEMTKWFNTNYHYMVPEFVKGQQFKLTWTQLLDEVDEALALGHKVKPVLLGPVTWLWLGKVKGEQFDRLSLLNDILPVYQQVLAELAKRGIEWVQIDEPALVLELPQAWLDAYKPAYDALQGQVKLPLTTYFEGVTPNLDTITALPVQGLHVDLVHGKDDVAELHKRLPSDWLLSAGLINGRNVWRADLTEKYAQIKDIVGKRDLWVASSCSLLHSPIDLSVETRLDAEVKSWFAFALQKCHELALLRDALNSGDTAALAEWSAPIQARRHSTRVHNPAVEKRLAAITAQDSQRANVYEVRAEAQRARFKLPAWPTTTIGSFPQTTEIRTLRLDFKKGNLDANNYRTGIAEHIKQAIVEQERLGLDVLVHGEAERNDMVEYFGEHLDGFVFTQNGWVQSYGSRCVKPPIVIGDISRPAPITVEWAKYAQSLTDKPVKGMLTGPVTILCWSFPREDVSRETIAKQIALALRDEVADLEAAGIGIIQIDEPALREGLPLRRSDWDAYLQWGVEAFRINAAVAKDDTQIHTHMCYCEFNDIMDSIAALDADVITIETSRSDMELLESFEEFDYPNEIGPGVYDIHSPNVPSVEWIEALLKKAAKRIPAERLWVNPDCGLKTRGWPETRAALANMVQAAQNLRRG
# B3: metE F348W (protein)
# chain: MTILNHTLGFPRVGLRRELKKAQESYWAGNSTREELLAVGRELRARHWDQQKQAGIDLLPVGDFAWYDHVLTTSLLLGNVPARHQNKDGSVDIDTLFRIGRGRAPTGEPAAAAEMTKWFNTNYHYMVPEFVKGQQFKLTWTQLLDEVDEALALGHKVKPVLLGPVTWLWLGKVKGEQFDRLSLLNDILPVYQQVLAELAKRGIEWVQIDEPALVLELPQAWLDAYKPAYDALQGQVKLLLTTYFEGVTPNLDTITALPVQGLHVDLVHGKDDVAELHKRLPSDWLLSAGLINGRNVWRADLTEKYAQIKDIVGKRDLWVASSCSLLHSPIDLSVETRLDAEVKSWFAWALQKCHELALLRDALNSGDTAALAEWSAPIQARRHSTRVHNPAVEKRLAAITAQDSQRANVYEVRAEAQRARFKLPAWPTTTIGSFPQTTEIRTLRLDFKKGNLDANNYRTGIAEHIKQAIVEQERLGLDVLVHGEAERNDMVEYFGEHLDGFVFTQNGWVQSYGSRCVKPPIVIGDISRPAPITVEWAKYAQSLTDKPVKGMLTGPVTILCWSFPREDVSRETIAKQIALALRDEVADLEAAGIGIIQIDEPALREGLPLRRSDWDAYLQWGVEAFRINAAVAKDDTQIHTHMCYCEFNDIMDSIAALDADVITIETSRSDMELLESFEEFDYPNEIGPGVYDIHSPNVPSVEWIEALLKKAAKRIPAERLWVNPDCGLKTRGWPETRAALANMVQAAQNLRRG
# B4: metE L326A (protein)
# chain: MTILNHTLGFPRVGLRRELKKAQESYWAGNSTREELLAVGRELRARHWDQQKQAGIDLLPVGDFAWYDHVLTTSLLLGNVPARHQNKDGSVDIDTLFRIGRGRAPTGEPAAAAEMTKWFNTNYHYMVPEFVKGQQFKLTWTQLLDEVDEALALGHKVKPVLLGPVTWLWLGKVKGEQFDRLSLLNDILPVYQQVLAELAKRGIEWVQIDEPALVLELPQAWLDAYKPAYDALQGQVKLLLTTYFEGVTPNLDTITALPVQGLHVDLVHGKDDVAELHKRLPSDWLLSAGLINGRNVWRADLTEKYAQIKDIVGKRDLWVASSCSLAHSPIDLSVETRLDAEVKSWFAFALQKCHELALLRDALNSGDTAALAEWSAPIQARRHSTRVHNPAVEKRLAAITAQDSQRANVYEVRAEAQRARFKLPAWPTTTIGSFPQTTEIRTLRLDFKKGNLDANNYRTGIAEHIKQAIVEQERLGLDVLVHGEAERNDMVEYFGEHLDGFVFTQNGWVQSYGSRCVKPPIVIGDISRPAPITVEWAKYAQSLTDKPVKGMLTGPVTILCWSFPREDVSRETIAKQIALALRDEVADLEAAGIGIIQIDEPALREGLPLRRSDWDAYLQWGVEAFRINAAVAKDDTQIHTHMCYCEFNDIMDSIAALDADVITIETSRSDMELLESFEEFDYPNEIGPGVYDIHSPNVPSVEWIEALLKKAAKRIPAERLWVNPDCGLKTRGWPETRAALANMVQAAQNLRRG
# B5: metE L326W (protein)
# chain: MTILNHTLGFPRVGLRRELKKAQESYWAGNSTREELLAVGRELRARHWDQQKQAGIDLLPVGDFAWYDHVLTTSLLLGNVPARHQNKDGSVDIDTLFRIGRGRAPTGEPAAAAEMTKWFNTNYHYMVPEFVKGQQFKLTWTQLLDEVDEALALGHKVKPVLLGPVTWLWLGKVKGEQFDRLSLLNDILPVYQQVLAELAKRGIEWVQIDEPALVLELPQAWLDAYKPAYDALQGQVKLLLTTYFEGVTPNLDTITALPVQGLHVDLVHGKDDVAELHKRLPSDWLLSAGLINGRNVWRADLTEKYAQIKDIVGKRDLWVASSCSLWHSPIDLSVETRLDAEVKSWFAFALQKCHELALLRDALNSGDTAALAEWSAPIQARRHSTRVHNPAVEKRLAAITAQDSQRANVYEVRAEAQRARFKLPAWPTTTIGSFPQTTEIRTLRLDFKKGNLDANNYRTGIAEHIKQAIVEQERLGLDVLVHGEAERNDMVEYFGEHLDGFVFTQNGWVQSYGSRCVKPPIVIGDISRPAPITVEWAKYAQSLTDKPVKGMLTGPVTILCWSFPREDVSRETIAKQIALALRDEVADLEAAGIGIIQIDEPALREGLPLRRSDWDAYLQWGVEAFRINAAVAKDDTQIHTHMCYCEFNDIMDSIAALDADVITIETSRSDMELLESFEEFDYPNEIGPGVYDIHSPNVPSVEWIEALLKKAAKRIPAERLWVNPDCGLKTRGWPETRAALANMVQAAQNLRRG
# B6: metE L326Q (protein)
# chain: MTILNHTLGFPRVGLRRELKKAQESYWAGNSTREELLAVGRELRARHWDQQKQAGIDLLPVGDFAWYDHVLTTSLLLGNVPARHQNKDGSVDIDTLFRIGRGRAPTGEPAAAAEMTKWFNTNYHYMVPEFVKGQQFKLTWTQLLDEVDEALALGHKVKPVLLGPVTWLWLGKVKGEQFDRLSLLNDILPVYQQVLAELAKRGIEWVQIDEPALVLELPQAWLDAYKPAYDALQGQVKLLLTTYFEGVTPNLDTITALPVQGLHVDLVHGKDDVAELHKRLPSDWLLSAGLINGRNVWRADLTEKYAQIKDIVGKRDLWVASSCSLQHSPIDLSVETRLDAEVKSWFAFALQKCHELALLRDALNSGDTAALAEWSAPIQARRHSTRVHNPAVEKRLAAITAQDSQRANVYEVRAEAQRARFKLPAWPTTTIGSFPQTTEIRTLRLDFKKGNLDANNYRTGIAEHIKQAIVEQERLGLDVLVHGEAERNDMVEYFGEHLDGFVFTQNGWVQSYGSRCVKPPIVIGDISRPAPITVEWAKYAQSLTDKPVKGMLTGPVTILCWSFPREDVSRETIAKQIALALRDEVADLEAAGIGIIQIDEPALREGLPLRRSDWDAYLQWGVEAFRINAAVAKDDTQIHTHMCYCEFNDIMDSIAALDADVITIETSRSDMELLESFEEFDYPNEIGPGVYDIHSPNVPSVEWIEALLKKAAKRIPAERLWVNPDCGLKTRGWPETRAALANMVQAAQNLRRG
# B7: metE L326D (protein)
# chain: MTILNHTLGFPRVGLRRELKKAQESYWAGNSTREELLAVGRELRARHWDQQKQAGIDLLPVGDFAWYDHVLTTSLLLGNVPARHQNKDGSVDIDTLFRIGRGRAPTGEPAAAAEMTKWFNTNYHYMVPEFVKGQQFKLTWTQLLDEVDEALALGHKVKPVLLGPVTWLWLGKVKGEQFDRLSLLNDILPVYQQVLAELAKRGIEWVQIDEPALVLELPQAWLDAYKPAYDALQGQVKLLLTTYFEGVTPNLDTITALPVQGLHVDLVHGKDDVAELHKRLPSDWLLSAGLINGRNVWRADLTEKYAQIKDIVGKRDLWVASSCSLDHSPIDLSVETRLDAEVKSWFAFALQKCHELALLRDALNSGDTAALAEWSAPIQARRHSTRVHNPAVEKRLAAITAQDSQRANVYEVRAEAQRARFKLPAWPTTTIGSFPQTTEIRTLRLDFKKGNLDANNYRTGIAEHIKQAIVEQERLGLDVLVHGEAERNDMVEYFGEHLDGFVFTQNGWVQSYGSRCVKPPIVIGDISRPAPITVEWAKYAQSLTDKPVKGMLTGPVTILCWSFPREDVSRETIAKQIALALRDEVADLEAAGIGIIQIDEPALREGLPLRRSDWDAYLQWGVEAFRINAAVAKDDTQIHTHMCYCEFNDIMDSIAALDADVITIETSRSDMELLESFEEFDYPNEIGPGVYDIHSPNVPSVEWIEALLKKAAKRIPAERLWVNPDCGLKTRGWPETRAALANMVQAAQNLRRG
# Biological target: Escherichia coli (laboratory strain)
# Experiment: barcode share on antibiotic plates over drug-free plates; higher = less susceptible
# Details: antibiotic: carbenicillin; 2× MIC (3.1 µg/mL)
# Description: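 A pool of E. coli strains, each edited to carry one amino-acid change in an essential protein, was grown for 48 h on minimal glucose agar with or without antibiotic; strain barcodes were sequenced; mean of two replicates.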
row,Protein,fold change of barcode share
1,B1,0.679 ± 0.17
2,B2,0.232 ± 0.11
3,B3,0.308 ± 0.21
4,B4,0.544 ± 0.06
5,B5,0.45 ± 0.14
6,B6,0.446 ± 0.12
7,B7,0.52 ± 0.095

# Same assay, conditions: antibiotic: gentamicin; 2× MIC (MIC 0.45 µg/mL)
row,Protein,fold change of barcode share
1,B2,0.0198 ± 0.013
2,B3,< 0.0131
3,B4,0.205 ± 0.28
4,B5,0.0187 ± 0.0074
5,B6,< 0.00695
6,B7,0.0232 ± 0.0053
